Reference: the supplement of paper PMC4604168 (melanoma cell lines)
Some of the results follow. Most values come without repeats; read them as rough.

How the values were obtained:
Assay in all cases: cell count relative to DMSO control; melanoma cells; higher = more viable cells
Settings in all cases: library dose: standard library concentration; 72 h
501Mel = tested on: 501Mel
A101D = tested on: A101D
A2058 = tested on: A2058
A375 = tested on: A375
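Also: cells treated in 1,536-well plates, then fixed and DAPI-stained, with nuclei counted from automated high-throughput microscope images.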

SMILES	cell count (501Mel) [%]	cell count (A101D) [%]	cell count (A2058) [%]	cell count (A375) [%]
C=CCNC1=C2C[C@@H](C)C[C@H](OC)[C@H](O)[C@@H](C)/C=C(\C)[C@H](OC(N)=O)[C@@H](OC)/C=C\C=C(/C)C(=O)NC(=CC1=O)C2=O [Tanespimycin] + C/C(O)=C(\C#N)C(=O)Nc1cc(Br)ccc1Br [LFM-A13] (first compound 0.01 µM, partner dose 10 µM)	103	101	81.8	97.6
CCCCCCCCCCCCCCCCCCOP(=O)([O-])OC1CC[N+](C)(C)CC1 [Perifosine] + C/C(O)=C(\C#N)C(=O)Nc1cc(Br)ccc1Br [LFM-A13] (first compound 2 µM, partner dose 10 µM)	79.1	99.5	74.2	90.3
O=C(O)[C@@H]1[O][Sb](=[O])([O][Sb]2(=[O])[O][C@H]([C@H](O)CO)[C@H](O)[C@H](C(=O)O)[O]2)[O][C@H]([C@H](O)CO)[C@@H]1O (stereo partly specified) [stibogluconate] + O=C(Oc1ccc([N+](=O)[O-])cc1)N1CCC(C(O)(c2ccc3c(c2)OCO3)c2ccc3c(c2)OCO3)CC1 [JZL184] (first compound 10 µM, partner dose 5 µM)	73.4	88.4	94.2	88.2
CC1(C)NC(=O)N(c2ccc([N+](=O)[O-])c(C(F)(F)F)c2)C1=O [nilutamide] + O=C(Oc1ccc([N+](=O)[O-])cc1)N1CCC(C(O)(c2ccc3c(c2)OCO3)c2ccc3c(c2)OCO3)CC1 [JZL184] (first compound 5 µM, partner dose 5 µM)	91.8	93.5	99.2	104
Cn1c(=O)n(-c2ccc(C(C)(C)C#N)cc2)c2c3cc(-c4cnc5ccccc5c4)ccc3ncc21 + C/C(O)=C(\C#N)C(=O)Nc1cc(Br)ccc1Br [LFM-A13] (first compound 0.02 µM, partner dose 10 µM)	82.1	70.9	62.8	102
CCCCCCCCCCCCCCCCCCOP(=O)([O-])OC1CC[N+](C)(C)CC1 [Perifosine] + Cc1cc(SCc2sc(-c3ccc(C(F)(F)F)c(F)c3)nc2C)ccc1OCC(=O)O [GW0742] (first compound 2 µM, partner dose 10 µM)	38.7	83.2	85.4	76.9
C=C(c1ccc(C(=O)O)cc1)c1cc2c(cc1C)C(C)(C)CCC2(C)C [Bexarotene] + Cc1cc(SCc2sc(-c3ccc(C(F)(F)F)c(F)c3)nc2C)ccc1OCC(=O)O [GW0742] (first compound 10 µM, partner dose 10 µM)	108	92.9	90.2	114
OCCn1cc(-c2cnc3nnn(Cc4ccc5ncccc5c4)c3n2)cn1 + O=C(Oc1ccc([N+](=O)[O-])cc1)N1CCC(C(O)(c2ccc3c(c2)OCO3)c2ccc3c(c2)OCO3)CC1 [JZL184] (first compound 5 µM, partner dose 5 µM)	86.7	116	105	107
Cc1ccc(Nc2nccc(N(C)c3ccc4c(C)n(C)nc4c3)n2)cc1S(N)(=O)=O [Pazopanib] + Cc1cc(SCc2sc(-c3ccc(C(F)(F)F)c(F)c3)nc2C)ccc1OCC(=O)O [GW0742] (first compound 2 µM, partner dose 10 µM)	67.6	91	90.8	85.9
C/C(O)=C(\C#N)C(=O)Nc1cc(Br)ccc1Br + Cn1cc(/C=C2\C(=O)Nc3cccnc32)c2ccccc21 [GW441756] (first compound 10 µM, partner dose 2 µM)	95.5	117	109	106
C[C@]1(O)C[C@@H](c2nc(-c3ccc4ccc(-c5ccccc5)nc4c3)c3c(N)nccn32)C1 + C/C(O)=C(\C#N)C(=O)Nc1cc(Br)ccc1Br [LFM-A13] (first compound 2 µM, partner dose 10 µM)	61.7	95.1	83.6	88.1
O=C(O)c1ccc(-c2c[nH]c3ncc(-c4ccccc4)cc23)cc1C1CCCC1 + Cc1cc(SCc2sc(-c3ccc(C(F)(F)F)c(F)c3)nc2C)ccc1OCC(=O)O [GW0742] (first compound 0.8 µM, partner dose 10 µM)	96.9	111	103	102
Cn1nnc2c(C(N)=O)ncn2c1=O [temozolomide] + C/C(O)=C(\C#N)C(=O)Nc1cc(Br)ccc1Br [LFM-A13] (first compound 10 µM, partner dose 10 µM)	98.7	83.3	44	97
O=c1[nH]nc(Sc2ncc([N+](=O)[O-])s2)n1-c1ccc2c(c1)OCCO2 + Cc1cc(SCc2sc(-c3ccc(C(F)(F)F)c(F)c3)nc2C)ccc1OCC(=O)O [GW0742] (first compound 1 µM, partner dose 10 µM)	117	112	118	96.2
CCN(CC)CCCCNc1ncc2cc(-c3cc(OC)cc(OC)c3)c(NC(=O)NC(C)(C)C)nc2n1 + Cc1cc(SCc2sc(-c3ccc(C(F)(F)F)c(F)c3)nc2C)ccc1OCC(=O)O [GW0742] (first compound 0.5 µM, partner dose 10 µM)	105	102	87.2	76.7
Cc1cn(-c2cc(NC(=O)c3ccc(C)c(Nc4nccc(-c5cccnc5)n4)c3)cc(C(F)(F)F)c2)cn1 [nilotinib] + C/C(O)=C(\C#N)C(=O)Nc1cc(Br)ccc1Br [LFM-A13] (first compound 1 µM, partner dose 10 µM)	70.2	96.6	106	139
Nc1cccc2c1CN(C1CCC(=O)NC1=O)C2=O (stereo unspecified) [lenalidomide] + O=C(Oc1ccc([N+](=O)[O-])cc1)N1CCC(C(O)(c2ccc3c(c2)OCO3)c2ccc3c(c2)OCO3)CC1 [JZL184] (first compound 5 µM, partner dose 5 µM)	103	94.9	92.3	102
CN(c1ncccc1CNc1nc(Nc2ccc3c(c2)CC(=O)N3)ncc1C(F)(F)F)S(C)(=O)=O + O=C(Oc1ccc([N+](=O)[O-])cc1)N1CCC(C(O)(c2ccc3c(c2)OCO3)c2ccc3c(c2)OCO3)CC1 [JZL184] (first compound 0.4 µM, partner dose 5 µM)	66.3	78.9	76.9	85.2
CCN(CC)CCCCNc1ncc2cc(-c3cc(OC)cc(OC)c3)c(NC(=O)NC(C)(C)C)nc2n1 + C/C(O)=C(\C#N)C(=O)Nc1cc(Br)ccc1Br [LFM-A13] (first compound 0.5 µM, partner dose 10 µM)	109	119	83.2	94.9
NC(=O)Nc1cc(-c2cccc(F)c2)sc1C(=O)N[C@H]1CCCNC1 + C/C(O)=C(\C#N)C(=O)Nc1cc(Br)ccc1Br [LFM-A13] (first compound 0.1 µM, partner dose 10 µM)	75.9	71	89.6	53
Cn1sc(=O)n(Cc2ccccc2)c1=O + O=C(Oc1ccc([N+](=O)[O-])cc1)N1CCC(C(O)(c2ccc3c(c2)OCO3)c2ccc3c(c2)OCO3)CC1 [JZL184] (first compound 2 µM, partner dose 5 µM)	81.1	99.8	93.3	98.5
NCC(=O)Nc1ccc(-n2nc(C(F)(F)F)cc2-c2ccc3c(ccc4ccccc43)c2)cc1 + C/C(O)=C(\C#N)C(=O)Nc1cc(Br)ccc1Br [LFM-A13] (first compound 5 µM, partner dose 10 µM)	20.1	81.5	95.7	81.2
CC(=O)O[C@@]12CO[C@@H]1C[C@H](O)[C@@]1(C)C(=O)[C@H](O)C3=C(C)[C@@H](OC(=O)[C@H](O)[C@@H](NC(=O)OC(C)(C)C)c4ccccc4)C[C@@](O)([C@@H](OC(=O)c4ccccc4)[C@H]21)C3(C)C [Docetaxel] + Cc1cc(SCc2sc(-c3ccc(C(F)(F)F)c(F)c3)nc2C)ccc1OCC(=O)O [GW0742] (first compound 0.0005 µM, partner dose 10 µM)	47.1	58.2	4.12	98.6
Cc1cc(SCc2sc(-c3ccc(C(F)(F)F)c(F)c3)nc2C)ccc1OCC(=O)O + CC(C)CCN1c2nc(Nc3cc(F)c(O)c(F)c3)ncc2N(C)C(=O)C1C [BID1870] (first compound 10 µM, partner dose 1 µM)	73.1	75.1	105	126
